Experimental data as given in patent US20240199750A1 (INNATE PHARMA, published 2024).

How the values were obtained:
[1] = target: T1, IL-2Rβ (CD122) on NK cells (human, UniProt P14784 27-551); test: cell-based or functional assay
T1 sequence (looked up): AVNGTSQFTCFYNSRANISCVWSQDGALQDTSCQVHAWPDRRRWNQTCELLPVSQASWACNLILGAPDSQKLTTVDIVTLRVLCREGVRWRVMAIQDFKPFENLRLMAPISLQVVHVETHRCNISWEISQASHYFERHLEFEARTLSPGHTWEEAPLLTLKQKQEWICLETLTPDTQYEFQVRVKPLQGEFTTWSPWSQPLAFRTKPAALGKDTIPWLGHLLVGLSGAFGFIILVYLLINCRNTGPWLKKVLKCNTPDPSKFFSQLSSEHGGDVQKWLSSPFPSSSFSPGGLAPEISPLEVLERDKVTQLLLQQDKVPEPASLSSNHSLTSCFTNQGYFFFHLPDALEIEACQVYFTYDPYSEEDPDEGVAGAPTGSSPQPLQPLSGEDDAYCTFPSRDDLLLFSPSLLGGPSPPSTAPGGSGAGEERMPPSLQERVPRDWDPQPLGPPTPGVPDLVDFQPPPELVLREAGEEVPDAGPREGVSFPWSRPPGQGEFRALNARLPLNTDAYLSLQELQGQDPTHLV

[2] = target: T2, high affinity IL-2Rαβγ complex on Treg cells (human, UniProt P01589 22-272; P14784 27-551; P31785 23-369); test: cell-based or functional assay
T2 sequence (looked up) 1: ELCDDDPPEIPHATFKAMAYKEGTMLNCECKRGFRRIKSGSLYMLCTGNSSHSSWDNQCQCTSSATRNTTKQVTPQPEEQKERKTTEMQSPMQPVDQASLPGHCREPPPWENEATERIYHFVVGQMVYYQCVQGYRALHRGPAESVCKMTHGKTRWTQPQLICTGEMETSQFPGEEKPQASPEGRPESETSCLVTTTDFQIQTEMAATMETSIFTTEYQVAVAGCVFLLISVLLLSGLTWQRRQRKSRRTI
T2 sequence (looked up) 2: T1 sequence (looked up)
T2 sequence (looked up) 3: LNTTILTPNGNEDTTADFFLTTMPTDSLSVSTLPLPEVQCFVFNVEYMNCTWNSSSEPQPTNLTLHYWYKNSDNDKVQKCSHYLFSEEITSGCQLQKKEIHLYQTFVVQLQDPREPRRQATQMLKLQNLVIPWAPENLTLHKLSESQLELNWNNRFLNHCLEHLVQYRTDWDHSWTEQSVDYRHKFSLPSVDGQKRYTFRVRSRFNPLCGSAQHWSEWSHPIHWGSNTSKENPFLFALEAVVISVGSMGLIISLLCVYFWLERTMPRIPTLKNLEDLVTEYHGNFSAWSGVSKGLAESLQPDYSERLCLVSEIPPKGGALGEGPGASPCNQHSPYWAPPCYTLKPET

[3] = target: T2, high affinity IL-2Rαβγ complex on Treg …; test: cell-based or functional assay; remark: listed apart in the source
[4] = target: T3, Human NKp46 recombinant proteins (human, UniProt O76036 22-258); test: SPR (Biacore T100, 25 C), protein captured on Protein-A chip, soluble recombinant human NKp46 6.25-400 nM injected, 1:1 kinetic model, monovalent affinity
T3 construct: also called recombinant human NKp46 proteins
T3 sequence: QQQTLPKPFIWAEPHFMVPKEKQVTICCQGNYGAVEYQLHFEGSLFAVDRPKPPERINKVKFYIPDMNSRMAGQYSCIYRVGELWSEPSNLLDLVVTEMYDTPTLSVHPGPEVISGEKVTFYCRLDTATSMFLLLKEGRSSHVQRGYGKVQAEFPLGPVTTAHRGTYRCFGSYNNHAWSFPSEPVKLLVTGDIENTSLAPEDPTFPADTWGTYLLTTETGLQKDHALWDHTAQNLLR
Protocol: SPR measurements were performed on a Biacore T100 apparatus (Biacore GE Healthcare) at 25° C. In all Biacore experiments HBS-EP+ (Biacore GE Healthcare) and NaOH 10 mM served as running buffer and regeneration buffer respectively. Sensorgrams were analyzed with Biacore T100 Evaluation software. Protein-A was purchased from (GE Healthcare). Human NKp46 recombinant proteins were cloned, produced and purified at Innate Pharma.
Protein-A proteins were immobilized covalently to carboxyl groups in the dextran layer on a Sensor Chip CM5. The chip surface was activated with EDC/NHS (N-ethyl-N′-(3-dimethylaminopropyl) carbodiimidehydrochloride and N-hydroxysuccinimide (Biacore GE Healthcare)). Protein-A was diluted to 10 μg/ml in coupling buffer (10 mM acetate, pH 5.6) and injected until the appropriate immobilization level was reached (i.e. 2000 RU). Deactivation of the remaining activated groups was performed using 100 mM ethanolamine pH 8 (Biacore GE Healthcare).
Seven serial dilutions of human NKp46 recombinant proteins, ranging from 6.25 to 400 nM were sequentially injected over the captured Bi-Specific antibodies and allowed to dissociate for 10 min before regeneration. The entire sensorgram sets were fitted using the 1:1 kinetic binding model.

[5] = target: T4, human FcRn (recombinant FcRn proteins) (human, UniProt P55899 in part; P61769 in part); test: SPR, recombinant human FcRn immobilised on CM5 chip, SCK/Two state reaction
T4 construct: Immobilised on a CM5 chip; also called neonatal Fc receptor
T4 sequence (P55899 24-297 limits assumed, chain 1 of 2): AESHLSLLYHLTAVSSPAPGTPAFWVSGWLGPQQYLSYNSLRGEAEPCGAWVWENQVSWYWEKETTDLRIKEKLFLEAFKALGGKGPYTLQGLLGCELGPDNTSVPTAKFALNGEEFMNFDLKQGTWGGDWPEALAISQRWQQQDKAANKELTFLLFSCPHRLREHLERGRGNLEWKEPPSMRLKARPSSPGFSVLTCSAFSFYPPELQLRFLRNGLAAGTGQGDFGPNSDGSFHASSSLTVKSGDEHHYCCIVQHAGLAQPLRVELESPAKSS
T4 sequence (P61769 21-119 limits assumed, chain 2 of 2, further chain): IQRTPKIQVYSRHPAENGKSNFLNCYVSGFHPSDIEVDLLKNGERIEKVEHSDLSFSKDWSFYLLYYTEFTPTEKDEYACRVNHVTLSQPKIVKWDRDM

B1: IC-T6-IC-IL2pWT (Fc fusion)
chain 1: EVQLVESGGGLVQPGRSLRLSCAASGFTFDNYAMHWVRQAPGKGLEWVSGISRSSGDIDYADSVKGRFTISRDNAKNSLYLQMNSLRAEDTALYYCARGGVGSFDTWGQGTMVTVSSASTKGPSVFPLAPSSKSTSGGTAALGCLVKDYFPEPVTVSWNSGALTSGVHTFPAVLQSSGLYSLSSVVTVPSSSLGTQTYICNVNHKPSNTKVDKRV[human IgG1 Fc with N297S (EU numbers) not spelt out]TGSEVQLVQSGAEVKKSGESLKISCKGSGYSFTSYWIGWVRQMPGKGLEWMGIFYPGDSSTRYSPSFQGQVTISADKSVNTAYLQWSSLKASDTAMYYCARRRNWGNAFDIWGQGTMVTVSSRTVAAPSVFIFPPSDEQLKSGTASVVCLLNNFYPREAKVQWKVDNALQSGNSQESVTEQDSKDSTYSLSSTLTLSKADYEKHKVYACEVTHQGLSSPVTKSFNRGEC
chain 2: EIVLTQSPATLSLSPGERATLSCRASQSVRSYLAWYQQKPGQAPRLLFSDASNRATGIPARFSGSGSGTDFTLTISSLEPEDFAVYYCQQYRYSPRTFGQGTKVEIKRTVAAPSVFIFPPSDEQLKSGTASVVCLLNNFYPREAKVQWKVDNALQSGNSQESVTEQDSKDSTYSLSSTLTLSKADYEKHKVYACEVTHQGLSSPVTKSFNRGE[human IgG1 Fc with N297S (EU numbers) not spelt out]
chain 3: [about 100 residues not spelt out]ASTKGPSVFPLAPSSKSTSGGTAALGCLVKDYFPEPVTVSWNSGALTSGVHTFPAVLQSSGLYSLSSVVTVPSSSLGTQTYICNVNHKPSNTKVDKRVEPKSCDKTHSGSSSSGSSSSGSSSSTKKTQLQLEHLLLDLQMILNGINNYKNPKLTRMLTFKFYMPKKATELKHLQCLEEELKPLEEVLNLAQSKNFHLRPRDLISNINVIVLELKGSETTFMCEYADETATIVEFLNRWITFCQSIISTLT
B1 was tested, and the “% pSTAT5, EC50 NK cells” value [1] was 0.6 nM and the “% pSTAT5, EC50 Tregs” value [2] was 2 pM.

B2: IC-T6-IC-IL2v (Fc fusion)
chain 1: B1 chain 1
chain 2: B1 chain 2
chain 3: [about 100 residues not spelt out]ASTKGPSVFPLAPSSKSTSGGTAALGCLVKDYFPEPVTVSWNSGALTSGVHTFPAVLQSSGLYSLSSVVTVPSSSLGTQTYICNVNHKPSNTKVDKRVEPKSCDKTHSGSSSSGSSSSAPASSSTKKTQLQLEHLLLDLQMILNGINNYKNPKLTRMLTAKFAMPKKATELKHLQCLEEELKPLEEVLNGAQSKNFHLRPRDLISNINVIVLELKGSETTFMCEYADETATIVEFLNRWITFAQSIISTLT
With B2 the “EC50 for STAT5 phosphorylation among the Treg” value [3] was ~3 log.

B3: CD19-F13-NKp46-3 (bispecific antibody, human IgG1, kappa)
chain 1: DIQLTQSPASLAVSLGQRATISCKASQSVDYDGDSYLNWYQQIPGQPPKLLIYDASNLVSGIPPRFSGSGSGTDFTLNIHPVEKVDAATYHCQQSTEDPWTFGGGTKLEIKRTVAAPSVFIFPPSDEQLKSGTASVVCLLNNFYPREAKVQWKVDNALQSGNSQESVTEQDSKDSTYSLSSTLTLSKADYEKHKVYACEVTHQGLSSPVTKSFNRGE[human IgG1 Fc not spelt out]
chain 2: QVQLQQSGAELVRPGSSVKISCKASGYAFSSYWMNWVKQRPGQGLEWIGQIWPGDGDTNYNGKFKGKATLTADESSSTAYMQLSSLASEDSAVYFCARRETTTVGRYYYAMDYWGQGTTVTVSSASTKGPSVFPLAPSSKSTSGGTAALGCLVKDYFPEPVTVSWNSGALTSGVHTFPAVLQSSGLYSLSSVVTVPSSSLGTQTYICNVNHKPSNTKVDKRV[human IgG1 Fc not spelt out]TGSEVQLQQSGPELVKPGASVKISCKTSGYTFTEYTMHWVKQSHGKSLEWIGGISPNIGGTSYNQKFKGKATLTVDKSSSTAYMELRSLTSEDSAVYYCARRGGSFDYWGQGTTLTVSSVEGGSGGSGGSGGSGGVDDIVMTQSPATLSVTPGDRVSLSCRASQSISDYLHWYQQKSHESPRLLIKYASQSISGIPSRFSGSGSGSDFTLSINSVEPEDVGVYYCQNGHSFPLTFGAGTKLELK
notes: Heterodimer: VH anti-CD19-CH1-CH2-CH3-(VH-Vk) anti-NKp46 scFv, paired with Vk anti-CD19-Ck-CH2-CH3; copies: 1 + 1
For B3, the Kd [4] was 68 nM, the koff [4] was 0.00565 s⁻¹ and the kon [4] was 83000 M⁻¹ s⁻¹.

B4: CD19-F14-NKp46-3 (bispecific antibody, human IgG1, kappa)
chain 1: DIQLTQSPASLAVSLGQRATISCKASQSVDYDGDSYLNWYQQIPGQPPKLLIYDASNLVSGIPPRFSGSGSGTDFTLNIHPVEKVDAATYHCQQSTEDPWTFGGGTKLEIKRTVAAPSVFIFPPSDEQLKSGTASVVCLLNNFYPREAKVQWKVDNALQSGNSQESVTEQDSKDSTYSLSSTLTLSKADYEKHKVYACEVTHQGLSSPVTKSFNRGE[human IgG1 Fc with N297S (EU numbers) not spelt out]
chain 2: QVQLQQSGAELVRPGSSVKISCKASGYAFSSYWMNWVKQRPGQGLEWIGQIWPGDGDTNYNGKFKGKATLTADESSSTAYMQLSSLASEDSAVYFCARRETTTVGRYYYAMDYWGQGTTVTVSSASTKGPSVFPLAPSSKSTSGGTAALGCLVKDYFPEPVTVSWNSGALTSGVHTFPAVLQSSGLYSLSSVVTVPSSSLGTQTYICNVNHKPSNTKVDKRV[human IgG1 Fc with N297S (EU numbers) not spelt out]TGSEVQLQQSGPELVKPGASVKISCKTSGYTFTEYTMHWVKQSHGKSLEWIGGISPNIGGTSYNQKFKGKATLTVDKSSSTAYMELRSLTSEDSAVYYCARRGGSFDYWGQGTTLTVSSVEGGSGGSGGSGGSGGVDDIVMTQSPATLSVTPGDRVSLSCRASQSISDYLHWYQQKSHESPRLLIKYASQSISGIPSRFSGSGSGSDFTLSINSVEPEDVGVYYCQNGHSFPLTFGAGTKLELK
notes: Same structure as F13 but with the CH2 mutation N297S to abolish N-linked glycosylation; copies: 1 + 1
For B4, the Kd [5] was 14 nM, the Kd [4] was 62 nM and the koff [4] was 0.00546 s⁻¹. It also gave a kon [4] of 88300 M⁻¹ s⁻¹.
